Experimental findings from PMC6919601, “Identification of Plasmodium dipeptidyl aminopeptidase allosteric inhibitors by high throughput screening” (PLoS ONE, 2019) are described below.

The campaign covered roughly 110,000 compounds. About 230 (0.21%) showed an effect of 50% or more. This is one part of the list.
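Note: 30 min substrate incubation versus DMSO and 10 µM JCP410 controls.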

The assay deals with DPAP1 (Plasmodium falciparum, UniProt Q8IIJ9). Kind of assay: primary screen, percent inhibition; read by cleavage of a fluorogenic dipeptide substrate; higher = more effect of the substance. Also on record: species or system P. falciparum D10 trophozoite lysates; single well.
Sequence of DPAP1 (Q8IIJ9 whole entry, looked up): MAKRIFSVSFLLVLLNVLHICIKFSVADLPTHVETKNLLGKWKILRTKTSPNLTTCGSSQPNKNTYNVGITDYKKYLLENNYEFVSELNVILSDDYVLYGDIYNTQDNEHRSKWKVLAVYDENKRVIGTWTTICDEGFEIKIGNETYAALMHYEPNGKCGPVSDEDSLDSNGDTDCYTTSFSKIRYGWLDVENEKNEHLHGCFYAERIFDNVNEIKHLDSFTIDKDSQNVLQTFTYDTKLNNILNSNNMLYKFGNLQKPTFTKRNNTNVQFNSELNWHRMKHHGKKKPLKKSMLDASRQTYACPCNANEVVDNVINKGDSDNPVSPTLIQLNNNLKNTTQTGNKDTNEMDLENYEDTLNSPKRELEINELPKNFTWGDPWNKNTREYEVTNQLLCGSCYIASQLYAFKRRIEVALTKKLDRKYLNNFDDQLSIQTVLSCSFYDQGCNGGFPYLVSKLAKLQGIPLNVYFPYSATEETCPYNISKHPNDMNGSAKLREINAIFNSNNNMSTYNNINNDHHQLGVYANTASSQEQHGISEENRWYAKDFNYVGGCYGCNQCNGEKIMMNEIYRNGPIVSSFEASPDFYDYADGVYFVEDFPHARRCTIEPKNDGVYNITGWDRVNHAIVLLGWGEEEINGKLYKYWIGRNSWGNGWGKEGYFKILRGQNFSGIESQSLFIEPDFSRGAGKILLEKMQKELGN
Take `CCCNC(=O)Cn1cc(S(=O)(=O)NC)c(S(=O)(=O)NC)c1`: the “% Inhibition @ 10 uM” value came to 3.25%.

With `CCOc1cc(C=C2C(=O)NC(=O)NC2=O)cc(Br)c1OCCOc1ccccc1C`, the “% Inhibition @ 10 uM” value was -3.78%.

On to `COc1ccc(C(=O)O/N=C(\N)c2ccccc2Cl)cc1OC`, for which the “% Inhibition @ 10 uM” value came out at 0.343%.

On to `Cc1cc(NCc2ccc(F)cc2)nc2cc(O)ccc12`, for which the “% Inhibition @ 10 uM” value was -3.11%.

Consider `O=C(NCCCn1ccnc1)c1cc2nc(-c3ccco3)cc(C(F)(F)Cl)n2n1`, for which the “% Inhibition @ 10 uM” value is given as 2.19%.

In the case of `Cc1nc2sc3c(NCc4ccccc4)ncnc3c2c2c1COC(C)(C)C2`, the “% Inhibition @ 10 uM” value is reported as 2.1%.

On to `COc1ccc(O)c(C2=NN3C(C2)c2cc(Br)ccc2OC3c2ccncc2)c1` (stereo not shown), for which the “% Inhibition @ 10 uM” value worked out at 6.5%.

Regarding `N#C/C(=C\c1ccc(Br)cc1)c1nc(-c2ccc([N+](=O)[O-])cc2)cs1`, the “% Inhibition @ 10 uM” value was -3.03%.

As to `CCCn1c2ccccc2c2cnn(CC(=O)NCCN(C)C)c(=O)c21`, the “% Inhibition @ 10 uM” value came to 0.958%.

Turning to `Cc1cc(Oc2ccc(C#N)cc2)nc(-c2ccc(Br)cc2)n1`, the “% Inhibition @ 10 uM” value is given as -9.91%.

Turning to `Cc1ccc(CNC(=O)C2CCN(S(=O)(=O)c3ccc4[nH]c5c(c4c3)CCCCC5)CC2)cc1`, the “% Inhibition @ 10 uM” value is recorded as 0.802%.

As for `COc1ccc(C(C)C)cc1S(=O)(=O)Nc1cccc(C(=O)O)c1`, the “% Inhibition @ 10 uM” value was -1.27%.

Regarding `CCC(C)c1ccc(NC(=O)c2ccc(Br)cc2)cc1` (stereo not shown), the “% Inhibition @ 10 uM” value worked out at 0.247%.

`CC(C)C(C(=O)O)N1C(=O)c2cccc3cccc(c23)C1=O` (stereo not shown): the “% Inhibition @ 10 uM” value came to 3.82%.

As to `COc1cc2c(cc1C=O)OC(C)C2` (stereo not shown), the “% Inhibition @ 10 uM” value was determined as 1.4%.

In the case of `O=C(NC(N1CCCC1=O)(C(F)(F)F)C(F)(F)F)c1ccccc1`, the “% Inhibition @ 10 uM” value is given as -13.4%.

As to `CCCC1(O)CC(c2ccccc2)NC(c2ccccc2)C1CC` (stereo not shown), the “% Inhibition @ 10 uM” value is given as -0.233%.

Turning to `COc1ccc(C(=O)Nc2sc(C)c(C)c2C(N)=O)cc1Br`, the “% Inhibition @ 10 uM” value stood at 1.07%.

On to `Cc1cc(OCC(=O)Nc2ccc(Br)cn2)ccc1Cl`, for which the “% Inhibition @ 10 uM” value turned out to be 6.15%.

As to `Cc1cc(C)nc(/N=C(\NCc2ccc(Cl)cc2)NC(=O)c2cccc(Cl)c2)n1`, the “% Inhibition @ 10 uM” value is 0.146%.

On to `Cc1nccc2nc(O)c(C(=O)NC3CCCCC3C)cc12` (stereo not shown), for which the “% Inhibition @ 10 uM” value was 2.35%.

As for `O=C(NC1CCS(=O)(=O)C1)OCCOC(=O)NC1CCS(=O)(=O)C1` (stereo not shown), the “% Inhibition @ 10 uM” value was -2.65%.

In the case of `Clc1ccc(-c2csc(N3CCN(C/C=C/c4ccccc4)CC3)n2)cc1`, the “% Inhibition @ 10 uM” value was -0.403%.

With `N#Cc1c(NC(=O)C2CCCO2)sc2c1CCCCCC2` (stereo not shown), the “% Inhibition @ 10 uM” value was -1.06%.

As for `CCCCCCOc1ccc(C2C3CN(C)CC=C3C(C#N)=C(N)C2(C#N)C#N)cc1OC` (stereo not shown), the “% Inhibition @ 10 uM” value is on record as -2.85%.

For the compound `CCOCCCNC(=O)C(c1ccccc1)N(Cc1ccc2c(c1)OCO2)C(=O)CNC(C)=O` (stereo not shown), the “% Inhibition @ 10 uM” value is -1.2%.

For `Cc1ccc2ncnc(-c3ccccc3)c2c1`, the “% Inhibition @ 10 uM” value is 0.392%.

In the case of `CCOc1ccc(-c2nc3s/c(=C\c4ccccc4F)c(=O)n3n2)cc1`, the “% Inhibition @ 10 uM” value is 3.8%.

Consider `CCOc1ccc2ccccc2c1/C=C1\N=C(c2ccc3c(c2)OCO3)OC1=O`, for which the “% Inhibition @ 10 uM” value is on record as 1.76%.

With `CC(C)(CCO)Nc1ncnc2onc(-c3ccc(F)cc3)c12`, the “% Inhibition @ 10 uM” value was 1.58%.

For the compound `CC(C)(C)N1C(=O)NC2C1NC(=O)N2C(C)(C)C` (stereo not shown), the “% Inhibition @ 10 uM” value was -3.66%.

Turning to `CC1(C)CC(=O)C2=C(C1)OC(N)=C(C#N)C2c1ccc(F)c(Br)c1` (stereo not shown), the “% Inhibition @ 10 uM” value was 0.317%.

In the case of `COCCNc1ncnc2c1c(-c1ccccc1)cn2-c1cccc(C)c1`, the “% Inhibition @ 10 uM” value is -0.757%.

Consider `CC(NC(=O)/C=C/c1cccc([N+](=O)[O-])c1)c1ccccc1` (stereo not shown), for which the “% Inhibition @ 10 uM” value is -2.51%.

In the case of `Cc1c(C(=O)O)cccc1-n1c(C)cc(/C=C2\NC(=O)NC2=O)c1C`, the “% Inhibition @ 10 uM” value turned out to be 3.47%.

Take `CC(=O)C1=C(C)N=C(S)NC1c1cc(Br)ccc1O` (stereo not shown): the “% Inhibition @ 10 uM” value is -8.28%.

Regarding `Cc1ccc(C)c(Cn2c(C)c(CNCCCc3ccccc3)c(C(=O)O)c2C)c1`, the “% Inhibition @ 10 uM” value came to 1.41%.

Take `COc1cc2c(cc1OC)C(COc1ccccc1OC)N(C(=O)C(C)C)CC2` (stereo not shown): the “% Inhibition @ 10 uM” value was determined as 1.42%.

In the case of `C=CCN(CC=C)S(=O)(=O)c1ccc(NC(C)=O)cc1`, the “% Inhibition @ 10 uM” value was 6.08%.

In the case of `O=C1c2ccccc2C(=O)N1Cc1nc2ccccc2c(=O)n1CCCn1ccnc1`, the “% Inhibition @ 10 uM” value was 7.18%.

On to `O=C1NC(=S)N/C1=C\c1cc(Cl)ccc1O`, for which the “% Inhibition @ 10 uM” value came to 36.8%.

For the compound `CN(C)CCN(Cc1ccccc1)c1ncnc2onc(-c3ccc(F)cc3)c12`, the “% Inhibition @ 10 uM” value is on record as -2.52%.

For the compound `COc1ccc(-c2cc(C)no2)cc1S(=O)(=O)N(C)Cc1ccco1`, the “% Inhibition @ 10 uM” value was 4.69%.

Regarding `CC1CCN(CCCNC(=O)CN2CCN(Cc3ccc(Cl)cc3)C2=O)CC1`, the “% Inhibition @ 10 uM” value worked out at 0.128%.

`CC1=C(C(=O)Nc2cccnc2)C(c2ccc(O)cc2)n2nc(SCc3ccccc3F)nc2N1` (stereo not shown): the “% Inhibition @ 10 uM” value is -0.363%.

In the case of `CC(C)Oc1ccc(C(CC(=O)Nc2nccs2)c2ccccc2)cc1` (stereo not shown), the “% Inhibition @ 10 uM” value is recorded as -2.98%.

As for `COc1ccc(-c2cc(C(F)(F)F)nc(N(C)Cc3ccccc3)n2)cc1OC`, the “% Inhibition @ 10 uM” value was 2.59%.

On to `COc1ccc(-n2nc3c(c2NC(=O)c2ccc(C(=O)c4ccccc4)cc2)CS(=O)(=O)C3)cc1`, for which the “% Inhibition @ 10 uM” value is 5.35%.

For `O=C(NCc1ccc(Cl)cc1)c1cc(-c2ccc(Cl)cc2)[nH]n1`, the “% Inhibition @ 10 uM” value is recorded as -0.356%.

For the compound `Cc1cccc(NC(=O)CSc2nc3nc(C)cc(C)n3n2)c1`, the “% Inhibition @ 10 uM” value is listed as -4.56%.

`CCOC(=O)c1cnc(SCc2cc(=O)n3ccccc3n2)nc1N`: the “% Inhibition @ 10 uM” value was -3.01%.

Turning to `CCCCn1c(=N)n(CC(O)c2ccc(C)cc2)c2ccccc21` (stereo not shown), the “% Inhibition @ 10 uM” value is reported as 0.313%.

Turning to `C=CCC(NC1CCCCC1)c1ccco1` (stereo not shown), the “% Inhibition @ 10 uM” value is recorded as -3.46%.

`COc1ccc(C(=O)N2CCN(c3ccc(Cl)cc3)CC2)c(OC)c1`: the “% Inhibition @ 10 uM” value amounted to 5.63%.

Take `Oc1nncc(NCc2ccccc2)c1Br`: the “% Inhibition @ 10 uM” value was -4.84%.

As for `CN1CCc2nc(S)c(C#N)c(-c3ccsc3)c2C1`, the “% Inhibition @ 10 uM” value is given as -2.8%.

In the case of `COc1ccc(OC)c(-c2cc(C(=O)O)c3cc(C)ccc3n2)c1`, the “% Inhibition @ 10 uM” value is listed as -0.318%.

As to `CCc1ccc(C2NC(=O)c3ccccc3N2)cc1` (stereo not shown), the “% Inhibition @ 10 uM” value was determined as 2.33%.

With `CCc1ccccc1-n1c(C)cc(/C=C2/NC(=O)NC2=O)c1C`, the “% Inhibition @ 10 uM” value was -1.06%.

`O=C(O)CSc1cccc(C(=O)Nc2ccccc2C(=O)O)c1`: the “% Inhibition @ 10 uM” value was 1.42%.

Consider `CCOC(=O)C1CCCCN1Cc1ccccc1` (stereo not shown), for which the “% Inhibition @ 10 uM” value is recorded as -5.61%.

Turning to `Cn1c(=O)c2sccc2n2c(CCC(=O)N3CCN(c4ncccn4)CC3)nnc12`, the “% Inhibition @ 10 uM” value is -0.326%.

`Cc1cccc(C)c1NC(=O)c1c(O)c2ccccc2n(CCC(C)C)c1=O`: the “% Inhibition @ 10 uM” value is recorded as -9.21%.

Consider `COCCCn1c(CCC(=O)O)ccc1-c1ccc(OC)cc1`, for which the “% Inhibition @ 10 uM” value is on record as -1.15%.
